A lower IC50 marks a more sensitive line; a fit beyond the top or the lowest dose is shown as a bound at that dose. The AUC spans the tested range (256-fold, ending at the top dose) of the same fit; the more sensitive the line, the further below 1. For part of these data: The top dose, if marked as inferred, comes from the curve model; the source does not state it. For part of these data: Drugs with an entry number were screened twice under separate entries, and the two screens often disagree.
How the values were obtained:
Assay in all cases: Viability of human cancer cell lines after 72 h of drug (GDSC screen)
Docetaxel = compound: CC(=O)O[C@@]12CO[C@@H]1C[C@H](O)[C@@]1(C)C(=O)[C@H](O)C3=C(C)[C@@H](OC(=O)[C@H](O)[C@@H](NC(=O)OC(C)(C)C)c4ccccc4)C[C@@](O)([C@@H](OC(=O)c4ccccc4)[C@H]21)C3(C)C [Docetaxel]; details: top dose 0.0125 µM
Method: (§1)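 Human cancer cell lines in 384-well plates, medium with 10% serum, drug for 72 h over a 256-fold dose range (nine 2-fold or five 4-fold steps up to the top dose). Adherent lines were fixed and stained with the nucleic acid dye Syto60, suspension lines read with resazurin; signal relative to control wells, capped at 0 and 100%. One two-parameter sigmoid per drug and line, fitted in a mixed model over all curves with the slope shared within a line.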

AMG-706 = compound: CC1(C)CNc2cc(NC(=O)c3cccnc3NCc3ccncc3)ccc21 [AMG-706]; details: top dose 2 µM; top dose inferred
Method: as §1

JNK Inhibitor VIII = compound: CCOc1nc(NC(=O)Cc2cc(OC)ccc2OC)cc(N)c1C#N [JNK Inhibitor VIII]; details: top dose 10 µM; top dose inferred
Method: as §1

NSC-207895 = compound: CN1CCN(c2ccc([N+](=O)[O-])c3no[n+]([O-])c23)CC1 [NSC-207895]; details: top dose 20 µM; top dose inferred
Method: as §1

FTI-277 = compound: COC(=O)[C@H](CCSC)NC(=O)c1ccc(NC[C@@H](N)CS)cc1-c1ccccc1 [FTI-277]; details: top dose 1.024 µM; top dose inferred
Method: as §1

YM155 = compound: COCC[n+]1c2c(n(Cc3cnccn3)c1C)C(=O)c1ccccc1C2=O [YM155]; details: top dose 5.12 µM
Method: as §1

OSI-906 = compound: C[C@]1(O)C[C@@H](c2nc(-c3ccc4ccc(-c5ccccc5)nc4c3)c3c(N)nccn32)C1 [OSI-906]; details: top dose 2.56 µM; top dose inferred
Method: as §1

SB-715992 = compound: Cc1ccc(C(=O)N(CCCN)[C@@H](c2nc3cc(Cl)ccc3c(=O)n2Cc2ccccc2)C(C)C)cc1 [SB-715992]; details: top dose 0.128 µM; top dose inferred
Method: as §1

Belinostat = compound: O=C(/C=C/c1cccc(S(=O)(=O)Nc2ccccc2)c1)NO [Belinostat]; details: top dose 20 µM; top dose inferred
Method: as §1

JNJ-26854165 = compound: c1ccc2c(CCNc3ccc(Nc4ccncc4)cc3)c[nH]c2c1 [JNJ-26854165]; details: top dose 10 µM
Method: as §1

JQ1 = compound: Cc1sc2c(c1C)C(c1ccc(Cl)cc1)=N[C@@H](CC(=O)OC(C)(C)C)c1nnc(C)n1-2 [JQ1]
Method: as §1

[1] = top dose 1 µM, screen: GDSC drug entry 1218, top dose inferred
[2] = top dose 2.56 µM, screen: GDSC drug entry 163

Cell Line	AUC (Docetaxel)	IC50 (Docetaxel)	AUC (AMG-706)	IC50 (AMG-706)	AUC (JNK Inhibitor VIII)	IC50 (JNK Inhibitor VIII)	AUC (NSC-207895)	IC50 (NSC-207895)	AUC (FTI-277)	IC50 (FTI-277)	AUC (YM155)	IC50 (YM155)	AUC (OSI-906)	IC50 (OSI-906)	AUC (SB-715992)	IC50 (SB-715992)	AUC (Belinostat)	IC50 (Belinostat)	AUC (JNJ-26854165)	IC50 (JNJ-26854165)	AUC (JQ1; [1])	IC50 (JQ1; [1])	AUC (JQ1; [2])	IC50 (JQ1; [2])
22RV1 (prostate, adherent)	0.701	3.34 nM	0.974	> 2000 nM	0.977	> 10 µM	0.899	> 20 µM	0.981	> 1020 nM	0.07	< 20 nM	0.831	2190 nM	0.795	76 nM	0.267	226 nM	0.887	> 10 µM	–	–	–	–
42-MG-BA (glioma, adherent)	0.56	1.15 nM	0.894	> 2000 nM	0.966	> 10 µM	0.985	> 20 µM	0.985	> 1020 nM	0.029	< 20 nM	0.983	> 2560 nM	0.985	> 128 nM	0.523	1450 nM	0.802	5.32 µM	0.976	> 1000 nM	0.837	1890 nM
201T (lung adenocarcinoma, adherent)	0.67	2.63 nM	0.967	> 2000 nM	0.974	> 10 µM	0.975	> 20 µM	0.953	> 1020 nM	0.451	228 nM	0.623	381 nM	0.863	> 128 nM	0.699	5310 nM	0.952	> 10 µM	–	–	0.743	972 nM
451Lu (melanoma, adherent)	0.734	3.51 nM	0.936	> 2000 nM	0.983	> 10 µM	0.836	12.5 µM	0.986	> 1020 nM	0.133	23.9 nM	0.989	> 2560 nM	0.984	> 128 nM	0.653	3250 nM	0.842	6.62 µM	0.988	> 1000 nM	0.44	110 nM
639-V (bladder, adherent)	0.623	1.62 nM	0.945	> 2000 nM	0.884	8 µM	0.844	11.3 µM	0.985	> 1020 nM	0.036	< 20 nM	0.959	> 2560 nM	0.946	> 128 nM	0.647	2980 nM	0.882	7.86 µM	0.911	> 1000 nM	0.602	292 nM
647-V (bladder, adherent)	0.696	2.79 nM	0.987	> 2000 nM	0.985	> 10 µM	0.729	5.61 µM	0.941	> 1020 nM	0.095	< 20 nM	0.965	> 2560 nM	0.96	> 128 nM	0.782	8370 nM	0.864	8.82 µM	0.984	> 1000 nM	0.614	330 nM
5637 (bladder, adherent)	0.298	0.225 nM	0.971	> 2000 nM	0.977	> 10 µM	0.873	16.1 µM	0.976	> 1020 nM	0.022	< 20 nM	0.917	> 2560 nM	0.804	57.1 nM	0.21	196 nM	0.793	4.1 µM	0.972	> 1000 nM	0.732	677 nM
8305C (thyroid, adherent)	0.763	5.85 nM	0.975	> 2000 nM	0.966	> 10 µM	0.828	17.9 µM	0.947	> 1020 nM	0.975	> 5120 nM	0.887	> 2560 nM	0.973	> 128 nM	0.982	> 20000 nM	0.918	> 10 µM	0.972	> 1000 nM	0.546	222 nM
A375 (melanoma, adherent)	0.652	1.9 nM	0.957	> 2000 nM	0.949	> 10 µM	0.88	14.5 µM	0.988	> 1020 nM	0.036	< 20 nM	0.677	451 nM	0.717	28.7 nM	0.338	486 nM	0.881	7.29 µM	0.991	> 1000 nM	0.909	2470 nM
AU565 (breast, adherent)	0.667	2.42 nM	0.866	> 2000 nM	0.935	> 10 µM	0.899	> 20 µM	0.941	> 1020 nM	0.077	< 20 nM	0.964	> 2560 nM	0.892	> 128 nM	0.381	566 nM	0.816	6.34 µM	–	–	0.853	2360 nM
AsPC-1 (pancreas, adherent)	0.818	> 12.5 nM	0.94	> 2000 nM	0.971	> 10 µM	0.972	> 20 µM	0.939	> 1020 nM	0.27	43.7 nM	0.95	> 2560 nM	0.939	> 128 nM	0.56	2040 nM	0.905	> 10 µM	–	–	–	–
BFTC-905 (bladder, adherent)	0.39	0.408 nM	0.949	> 2000 nM	0.952	> 10 µM	0.799	8.08 µM	0.99	> 1020 nM	0.019	< 20 nM	0.642	371 nM	0.728	31.7 nM	0.476	1090 nM	0.827	4.98 µM	0.989	> 1000 nM	0.507	166 nM
BHT-101 (thyroid, adherent)	0.853	10.2 nM	0.943	> 2000 nM	0.864	9.19 µM	0.861	17.8 µM	0.973	> 1020 nM	0.241	55.5 nM	0.927	> 2560 nM	0.964	> 128 nM	0.288	309 nM	0.915	> 10 µM	0.977	> 1000 nM	0.777	1060 nM
BICR10 (head and neck, adherent)	0.662	2.37 nM	0.952	> 2000 nM	0.936	> 10 µM	0.917	> 20 µM	0.918	> 1020 nM	0.206	37.1 nM	0.891	> 2560 nM	0.953	> 128 nM	0.771	8880 nM	0.843	8.76 µM	0.981	> 1000 nM	0.69	597 nM
BxPC-3 (pancreas, adherent)	0.723	3.66 nM	0.952	> 2000 nM	0.984	> 10 µM	0.962	> 20 µM	0.947	> 1020 nM	0.032	< 20 nM	0.957	> 2560 nM	–	–	0.48	1090 nM	0.882	> 10 µM	–	–	–	–
Calu-3 (lung adenocarcinoma, adherent)	0.947	> 12.5 nM	0.983	> 2000 nM	0.973	> 10 µM	0.982	> 20 µM	0.935	> 1020 nM	0.325	91.3 nM	0.939	> 2560 nM	0.983	> 128 nM	0.7	5320 nM	0.869	> 10 µM	–	–	–	–
DMS-273 (small cell lung carcinoma, adherent)	0.529	0.942 nM	0.976	> 2000 nM	0.967	> 10 µM	0.783	8.93 µM	0.973	> 1020 nM	0.03	< 20 nM	0.978	> 2560 nM	–	–	0.233	199 nM	0.887	> 10 µM	0.983	> 1000 nM	0.599	305 nM
FU97 (stomach, adherent)	0.828	7.99 nM	0.952	> 2000 nM	0.957	> 10 µM	0.953	> 20 µM	0.986	> 1020 nM	0.426	200 nM	0.958	> 2560 nM	–	–	0.521	1430 nM	0.851	7.98 µM	0.976	> 1000 nM	0.613	331 nM
HuH-7 (liver, adherent)	0.874	–	0.954	> 2000 nM	0.979	> 10 µM	0.9	> 20 µM	0.986	> 1020 nM	0.405	176 nM	0.811	1360 nM	0.987	> 128 nM	0.448	900 nM	0.871	9.35 µM	–	–	–	–
KP-2 (pancreas, adherent)	0.691	2.82 nM	0.982	> 2000 nM	0.939	> 10 µM	0.945	> 20 µM	0.986	> 1020 nM	0.534	399 nM	0.843	2040 nM	0.776	55.1 nM	0.561	1860 nM	0.981	> 10 µM	–	–	–	–
LCLC-103H (large cell lung carcinoma, adherent)	0.742	3.55 nM	0.986	> 2000 nM	0.979	> 10 µM	0.985	> 20 µM	0.954	> 1020 nM	0.023	< 20 nM	0.861	1840 nM	0.847	81 nM	0.457	966 nM	0.854	6.76 µM	–	–	–	–
MDA-MB-468 (breast, adherent)	0.798	5.71 nM	0.97	> 2000 nM	0.961	> 10 µM	0.859	15.6 µM	0.982	> 1020 nM	0.032	< 20 nM	0.987	> 2560 nM	0.501	8.06 nM	0.768	7190 nM	0.913	> 10 µM	–	–	–	–
NCI-H661 (large cell lung carcinoma, adherent)	0.802	7.68 nM	0.877	> 2000 nM	0.901	> 10 µM	0.834	17 µM	0.9	> 1020 nM	0.033	< 20 nM	0.946	> 2560 nM	0.685	29.5 nM	0.371	511 nM	0.782	5.14 µM	–	–	–	–
SBC-5 (small cell lung carcinoma, adherent)	0.7	2.51 nM	0.991	> 2000 nM	0.993	> 10 µM	0.849	11 µM	0.993	> 1020 nM	0.016	< 20 nM	0.97	> 2560 nM	0.962	> 128 nM	0.348	517 nM	0.903	8.8 µM	–	–	–	–
